In all, about 150,000 compounds went through this assay and about 540 (0.36%) showed an effect of 50% or more. Some of the results follow.

For this test, the system named is Plasmodium falciparum. As to the kind of experiment: Primary screen in NF54 nanoGlo assay, in single point, at 2uM, 72h; a lower Z score goes with more inhibition. The format is functional, Erythrocyte. The conditions noted are these: timepoint 72 hour.
The term % Inhibition denotes the relative decrease from the control value, in per cent. In the case of `CCOC(=O)c1csc([C@@H]2CCCN2C(=O)c2ccc(C(=O)O)cc2)n1`, the “% Inhibition” value was -7% and the Z score turned out to be 0.77.
As for `COCc1nocc1C(=O)Nc1ccnn1[C@H]1CCCc2ccccc21`, the “% Inhibition” value was -11% and the Z score was 1.71.
Take `CN(C(=O)[C@H]1CCS(=O)(=O)C1)c1ccccc1`: the “% Inhibition” value is reported as -11% and the Z score amounted to 1.59.
As to `Cn1nccc1CNC(=O)N1CCN(c2cccs2)CC1`, the “% Inhibition” value is listed as -8% and the Z score is reported as 1.12.
`Cc1nn(C)c(C)c1S(=O)(=O)N1CCCCc2ccccc21`: the “% Inhibition” value is on record as -18% and the Z score is 1.76.
For the compound `Cc1noc([C@H]2CCN(C(=O)NCc3ccc(F)cc3)C[C@H]2NC(=O)C2CCOCC2)n1`, the “% Inhibition” value amounted to 8% and the Z score is -1.46.
For the compound `Cc1ccc(OCC(=O)N2CCOC3CCCCC32)cc1` (centres undefined), the “% Inhibition” value is -7% and the Z score was 0.94.
For `O=C1NC2(CCCCC2)C(=O)N1Cc1nc2ccccc2s1`, in that order: -5% and 0.52.
Regarding `COc1cc(NC(=O)Nc2ccccc2F)cc2sc(NS(=O)(=O)c3ccccc3)nc12`, the “% Inhibition” value is listed as 35% and the Z score is listed as -3.95.
Turning to `NC(=O)c1coc(CNC(=O)c2cccc(N3CCCC3)c2)n1`, the “% Inhibition” value is -7% and the Z score was 0.91.
On the same counts, the results for `Cc1ncccc1NC(=O)N(Cc1ccccc1)[C@@H](CO)C(C)C` are -6% and 0.93.
`COc1ccc(O)c([C@H]2Nc3ccccc3-n3c(-c4ccc(C)cc4)c4c(=O)n(C)c(=O)n(C)c4c32)c1`: the “% Inhibition” value turned out to be 25% and the Z score came out at 0.19.
`COc1ccc(-c2noc(-c3nc(Cc4ccccc4)no3)n2)cc1OC`: the “% Inhibition” value is listed as -16% and the Z score is 1.45.
Turning to `CC(C)[C@H](CNC(=O)c1cc2c(cc1Br)NC(=O)CO2)c1cccnc1`, the “% Inhibition” value was determined as 0% and the Z score is 0.02.
Regarding `CCOCc1nnc(NCc2cnc3ccc(C)cn23)o1`, the “% Inhibition” value is listed as -5% and the Z score was 0.79.
On the same counts, the results for `Cc1ccccc1C(=O)NCC1=CCCN(Cc2cccc(C#N)c2)C1` are -2% and 0.53.
In the case of `CC[C@]1(C(=O)NCc2ccc(OC)cc2OC(F)F)CCNC1`, the “% Inhibition” value is recorded as -13% and the Z score turned out to be 1.28.
Consider `Cc1[nH]cnc1CN1CCC(CCC(=O)Nc2ccc3c(c2)OCCO3)CC1`, for which the “% Inhibition” value is given as -6% and the Z score worked out at 0.93.
As for `Cc1cnn(C)c1S(=O)(=O)Nc1cc(C(F)(F)F)c(Br)cn1`, the “% Inhibition” value was determined as 9% and the Z score is -1.66.
For `CC1(C)CC(=O)N(Cc2ccccc2)[C@@]1(C)O`, in that order: -4% and 0.73.
In the case of `Cc1cc(CNCCn2cccn2)on1`, the “% Inhibition” value was -7% and the Z score was determined as 1.24.
For the compound `COc1cc(-c2n[nH]cc2CN2CCC([C@H](C)N3CCOCC3)CC2)cc(OC)c1OC`, the “% Inhibition” value is listed as -14% and the Z score was determined as 1.6.
`CN(CC#N)S(=O)(=O)c1cccc(F)c1F`: the “% Inhibition” value is on record as -7% and the Z score stood at 0.85.
In the case of `CN1CC(=O)N(c2cccc(NC(=O)NC[C@H]3COCCO3)c2)C1=O`, the “% Inhibition” value is on record as 2% and the Z score is on record as -0.44.
For `CC(C)Oc1ccc(CNC(=O)CC2CCN(C(=O)c3ccc4oc(C5CC5)nc4c3)CC2)cc1`, in that order: 5% and -0.59.
With `Cc1ccc(CN(C(=O)c2cccs2)c2cccc(CC(=O)N(C)Cc3ccccc3)c2)cc1`, the “% Inhibition” value was 5% and the Z score was -0.48.
For `COc1ccc2c(c1)C(N1CCCN(C(=O)c3cc(F)cc(F)c3)CC1)=Nc1ccccc1O2`, in that order: 6% and -0.79.
In the case of `CCn1c(=O)c(C(=O)NCc2ccc(F)cc2)nn(-c2cccc(C)c2)c1=O`, the “% Inhibition” value is given as -6% and the Z score is 1.17.
For `CC1(C)CN(C(=O)c2cccc(N3CCCC3=O)c2)C[C@]1(C)O`, in that order: -6% and 1.16.
With `c1cc(CN2CCC(N3CC4(CCCCC4)[C@H]3c3ccncc3)CC2)ccn1`, the “% Inhibition” value came to 1% and the Z score was -0.19.
Regarding `CNC(=O)NC(=O)COc1ccc(Cl)cc1Cl`, the “% Inhibition” value is on record as -2% and the Z score stood at 0.27.
On to `CCN1Cc2nc(OC)c(CNC(=O)CCc3c(C)nn(C)c3C)cc2C1=O`, for which the “% Inhibition” value was -6% and the Z score was 1.13.
For `Cc1nn2c(c1-c1ccccc1)N=C(c1ccccc1O)C[C@H]2c1ccccc1`, in that order: -3% and 0.37.
As for `Cc1cc(C(F)(F)F)n(C[C@@H](C)CNC(=O)c2cn(C)c(=O)[nH]c2=O)n1`, the “% Inhibition” value is reported as -1% and the Z score is recorded as 0.19.
`CC(C)c1cc(NC(=O)NCC[C@H]2CCC(=O)N2CCN(C)C)n(C)n1`: the “% Inhibition” value is 1% and the Z score is -0.25.
`CCC1(C)CC(c2csc(N)n2)CCO1` (centres undefined): the “% Inhibition” value is 0% and the Z score is reported as -0.04.
As to `CN(C)Cc1ccnc(NC(=O)c2cc(C3CC3)[nH]n2)c1`, the “% Inhibition” value came to 2% and the Z score is on record as -0.31.
With `CCn1c(-c2cc(NC(=O)Cc3ccc(OC)cc3)[nH]n2)cc2ccc(OC)cc21`, the “% Inhibition” value turned out to be 1% and the Z score was -0.1.
Take `CNc1nc(-c2cc(C(=O)C(Cl)(Cl)Cl)n(C)c2)cs1`: the “% Inhibition” value was -3% and the Z score is listed as 0.53.
For the compound `O=C(Nc1nc2c(s1)CCC2)c1ccc(Nc2ncccn2)cc1`, the “% Inhibition” value worked out at 6% and the Z score is reported as -0.81.
Consider `COc1ccccc1C1CN(CC(=O)NC(CCn2ccnc2)c2ccccc2)Cc2ccccc2O1` (centres undefined), for which the “% Inhibition” value is recorded as 15% and the Z score is on record as -1.94.
For `C[C@@H]1Oc2ccc(NC(=O)CCc3ncc(-c4ccc(Cl)cc4Cl)o3)cc2NC1=O`, in that order: 9% and -1.48.
For the compound `COC1CN(C(=O)OC(C)(C)C)CC1NC(=O)c1ccc(F)cc1Cl` (centres undefined), the “% Inhibition” value amounted to 1% and the Z score is -0.16.
For `CCOc1ccc(CN2CCN(C(=O)c3ccc(C)nc3)CC2)cn1`, in that order: 13% and -1.61.
Turning to `Cc1cc(C)n2ncc(-c3noc(C(=O)NC4CCCCCC4)n3)c2n1`, the “% Inhibition” value is -14% and the Z score amounted to 1.63.
With `COc1ncncc1NC(=O)NC1CCC(C)C1` (centres undefined), the “% Inhibition” value was -14% and the Z score came out at 1.4.
With `COC(=O)c1ncn(CNC2(c3ccc(Cl)cc3)CCCC2)n1`, the “% Inhibition” value turned out to be 35% and the Z score is -4.76.
For the compound `O=C1Nc2ccc(-c3ccc4c(c3)OCO4)cc2C(=O)N2C[C@@H](NS(=O)(=O)c3ccc(F)cc3)C[C@@H]12`, the “% Inhibition” value is reported as 29% and the Z score is reported as -3.28.
Consider `COc1ccc(C[C@H]2CCOC3(CCN(C(=O)c4ccc(OC)c(F)c4)CC3)C2)cc1`, for which the “% Inhibition” value is -3% and the Z score is given as 0.6.
On to `CCOc1ccccc1CNC(=O)c1cc(N2CCc3cc(OC)c(OC)cc3C2)nc2ccccc12`, for which the “% Inhibition” value is on record as -2% and the Z score worked out at 0.25.
With `O=C1CCCCN1CC(=O)N1CCO[C@@H](Cc2cccc3ccccc23)C1`, the “% Inhibition” value is -5% and the Z score was 0.71.
On the same counts, the results for `CC(C)(C)CN(C(=O)[C@H]1CCCN(C(=O)C(C)(C)C)C1)c1ccc(F)cc1` are 32% and -3.66.
`Cc1cc(CS(=O)(=O)c2ccccc2Br)on1`: the “% Inhibition” value is on record as -4% and the Z score worked out at 0.76.
`O=c1[nH]c(Nc2ccccc2)nc2nccc(-c3ccc(Br)cc3)c12`: the “% Inhibition” value came out at 7% and the Z score is given as -0.94.
As for `O=C1CCN(C(=O)c2cn(C(c3ccccc3)c3ccccc3)nn2)CCN1`, the “% Inhibition” value is recorded as -3% and the Z score came out at 0.35.
Regarding `CCN(CCOc1c(C)cccc1C)Cc1cc(C)n[nH]1`, the “% Inhibition” value is recorded as -10% and the Z score is 1.43.
In the case of `COc1ccc(-c2cccc(-n3cncc3C(=O)NCc3c(-c4ccccc4)noc3C)c2)cc1OC`, the “% Inhibition” value is given as 11% and the Z score is listed as -1.71.
Consider `O=C(O)C1CC2CCCCC2N1S(=O)(=O)Cc1ccccc1Cl` (centres undefined), for which the “% Inhibition” value stood at 14% and the Z score is listed as -1.81.
With `CS(=O)(=O)C[C@H]1CCCN(Cc2cccnc2N)C1`, the “% Inhibition” value turned out to be 3% and the Z score is -0.4.
As for `Cc1ccc(OCCCN(C)C(=O)C2CCNCC2)cc1C`, the “% Inhibition” value is reported as -8% and the Z score is given as 1.21.
Consider `O=C(CC[C@H]1CCCN(c2cc(NC3CC3)ncn2)C1)NCc1ccc(N2CCOCC2)cc1`, for which the “% Inhibition” value is -1% and the Z score was 0.23.
For `CS(=O)(=O)NCCOc1cccc(F)c1`, the “% Inhibition” value is -10% and the Z score came out at 1.47.
On to `CC(C)COC1CCN(C(=O)CN2CCCCCC2=O)CC1`, for which the “% Inhibition” value was -5% and the Z score worked out at 0.68.
As to `CC(C)CN(Cc1cnc(N(C)CC(=O)O)nc1)C1CC1`, the “% Inhibition” value is -2% and the Z score turned out to be 0.3.
Turning to `CC(=O)OCCc1sc(N)nc1C`, the “% Inhibition” value is recorded as -3% and the Z score was determined as 0.47.
Turning to `CC[C@](C)(NS(=O)(=O)c1ccc(C#N)cc1)C(=O)OC`, the “% Inhibition” value is -45% and the Z score is listed as 5.28.
Turning to `CCN(C(=O)c1ccc2ncoc2c1)[C@@H](C)C(F)(F)F`, the “% Inhibition” value stood at 1% and the Z score is -0.1.
For `CCCc1nc(N2CCC(N(C)CCN(C)C)CC2)no1`, in that order: -2% and 0.24.
For `CCNC(=O)Cc1ccc(C[C@@H]2CC[C@H](CN3CCCC3)O2)cc1`, in that order: -7% and 1.4.
On to `CN(C)CCn1ccc(NC(=O)N2CCC[C@@H]2Cc2ccc(F)cc2)n1`, for which the “% Inhibition” value is listed as 15% and the Z score is reported as -1.98.
In the case of `Cc1ncncc1C(=O)N1CCC[C@H](c2nccn2Cc2ccccc2)C1`, the “% Inhibition” value is recorded as -3% and the Z score was 0.57.
On to `CC(=O)N1CCC(Cn2cnc3ccccc32)CC1`, for which the “% Inhibition” value is given as -1% and the Z score worked out at 0.07.
In the case of `CC1=C[C@@H](CNC(=O)c2cnccn2)[C@H](C(C)C)C[C@H]1Cc1nc2ccncc2[nH]1`, the “% Inhibition” value is reported as 5% and the Z score is given as -0.7.
For `Brc1c[nH]c(-c2nc(-c3cnccn3)no2)c1`, in that order: -1% and 0.25.
Consider `CCOC(=O)C1=CS/C(=C2/C(=S)C(C)(C)Nc3ccc(C)cc32)S1`, for which the “% Inhibition” value was -19% and the Z score stood at 2.07.
On the same counts, the results for `C=CCNC(=O)C1(NC(=O)c2cc(C)n[nH]2)CCCCC1` are -3% and 0.34.
In the case of `COc1cc2ccc1Oc1cccc(c1)CO[C@H]1CN(C(=O)c3n[nH]c4c3CCCC4)C[C@@H]1NC(=O)CN(C1CC1)C(=O)CC2`, the “% Inhibition” value is listed as 2% and the Z score was -0.28.
On the same counts, the results for `COCCNc1ncc(Br)c(NCCOC)n1` are -9% and 1.45.
Regarding `Cn1cc(S(=O)(=O)N2CCCC[C@@H]2CNC(=O)Nc2ccccc2)c(=O)n(C)c1=O`, the “% Inhibition” value was determined as 4% and the Z score is given as -0.6.
For `O=C(Nc1ccccc1-c1cn2ccccc2n1)c1ncccn1`, in that order: 21% and -2.71.
On the same counts, the results for `COc1cccc(C(=O)NCC(=O)NC2(C)Cc3ccccc3C2)c1` are 25% and -2.78.
As for `COCCN1[C@@H]2CCN(C(=O)CC3CCCCC3)C[C@@]2(C(=O)N2CCOCC2)CCS1(=O)=O`, the “% Inhibition” value was -17% and the Z score was 2.49.

Values taken from ChEMBL document CHEMBL4888484, “Replenishing the malaria drug discovery pipeline: Screening and hit evaluation of the MMV Hit Generation Library 1 (HGL1) against asexual blood stage Plasmodium falciparum ,using a nano luciferase reporter read-out” (2022).
